Laboratory results as given in paper PMC9262947.
Changes are numbered by the printed parent chain. These are yes or no findings as the source states them, for the method shown. Some binding calls cover weakened binding; strength is not graded here. For some assays here: Where a sequence is shown, tags or fusion partners need not be part of it.

Chains of the proteins cited; added tags and fusions are not shown.
UniProt P0AEZ3: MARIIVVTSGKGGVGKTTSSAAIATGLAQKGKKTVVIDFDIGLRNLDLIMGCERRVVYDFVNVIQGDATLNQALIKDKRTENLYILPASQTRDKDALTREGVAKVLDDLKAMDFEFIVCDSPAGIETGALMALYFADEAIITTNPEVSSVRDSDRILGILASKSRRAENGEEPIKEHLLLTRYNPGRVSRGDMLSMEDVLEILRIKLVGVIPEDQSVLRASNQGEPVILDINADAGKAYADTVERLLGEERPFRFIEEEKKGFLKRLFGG
UniProt P0A9A6: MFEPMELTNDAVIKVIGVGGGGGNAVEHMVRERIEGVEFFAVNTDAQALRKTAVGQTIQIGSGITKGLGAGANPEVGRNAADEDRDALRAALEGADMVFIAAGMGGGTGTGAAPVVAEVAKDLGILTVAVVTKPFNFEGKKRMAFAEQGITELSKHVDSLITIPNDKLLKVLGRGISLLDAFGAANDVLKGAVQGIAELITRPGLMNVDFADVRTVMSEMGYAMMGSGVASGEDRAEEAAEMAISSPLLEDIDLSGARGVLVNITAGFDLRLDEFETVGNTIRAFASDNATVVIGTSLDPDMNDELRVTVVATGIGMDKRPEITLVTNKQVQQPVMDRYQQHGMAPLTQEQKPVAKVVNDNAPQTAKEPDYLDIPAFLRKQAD

Legend:
MinE (E. coli) = MinE (E. coli) (UniProt P0A734); assay: recruitment to a supported lipid bilayer, fluorescence microscopy; anchor or Min proteins pre-expressed in PUREfrex2.0 with DnaK mix (3 h, 37 °C), supplemented with 3 µM purified FtsZ-A647, 2 mM GTP, 2.5 mM ATP and eGFP-MinC (0.5 µM) or eGFP-MinD (100 nM), on a DOPC/DOPG bilayer, imaged at 37 °C; only the binder purified
FtsA(R286W) (E. coli) = molecular target: T1, FtsA(R286W) (E. coli) (UniProt P0ABH0); assay: as above
T1 sequence: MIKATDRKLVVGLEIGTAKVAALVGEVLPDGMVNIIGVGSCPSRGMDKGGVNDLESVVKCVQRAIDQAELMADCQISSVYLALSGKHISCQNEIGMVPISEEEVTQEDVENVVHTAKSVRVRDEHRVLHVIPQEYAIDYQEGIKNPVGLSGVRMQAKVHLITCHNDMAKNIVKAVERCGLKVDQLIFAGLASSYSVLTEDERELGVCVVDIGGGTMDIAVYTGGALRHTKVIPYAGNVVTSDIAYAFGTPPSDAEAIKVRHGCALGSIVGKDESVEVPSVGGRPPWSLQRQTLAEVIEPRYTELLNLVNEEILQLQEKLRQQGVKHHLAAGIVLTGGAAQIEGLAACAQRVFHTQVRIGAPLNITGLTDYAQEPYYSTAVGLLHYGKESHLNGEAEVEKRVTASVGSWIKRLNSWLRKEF

FtsA (E. coli) = molecular target: T2, FtsA (E. coli) (UniProt P0ABH0); assay: as above
T2 sequence: T1 sequence with W286R

MinD (E. coli) = MinD (E. coli) (UniProt P0AEZ3); assay: as above
[1] = molecular target: T3, eGFP-MinC (fusion between the enhanced green fluorescent protein and MinC) (E. coli) (UniProt P18196); assay: recruitment to a supported lipid bilayer, fluorescence microscopy; MinD and MinE pre-expressed in PUREfrex2.0 from the bi-cistronic template (no FtsA), supplemented with 0.5 µM purified eGFP-MinC, 3 µM purified FtsZ-A647, 2 mM GTP, 2.5 mM ATP, on a DOPC/DOPG bilayer, imaged at 37 °C; both purified
T3 sequence: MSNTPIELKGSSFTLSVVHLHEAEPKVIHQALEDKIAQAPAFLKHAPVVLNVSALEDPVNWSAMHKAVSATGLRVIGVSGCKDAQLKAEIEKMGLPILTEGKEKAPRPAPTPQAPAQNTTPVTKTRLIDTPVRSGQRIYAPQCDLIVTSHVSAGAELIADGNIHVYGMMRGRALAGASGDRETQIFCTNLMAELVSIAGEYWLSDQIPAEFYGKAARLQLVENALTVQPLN

Q: Which results are given for “FtsZ conjugated to the AlexaFluor647 fluorophore (from UniProt P0A9A6 1-383)”?
A: binding (MinE (E. coli)): no binding (tested: 3 µM FtsZ-A647); binding (FtsA(R286W) (E. coli)): binds; binding (FtsA (E. coli)): binds; binding (MinD (E. coli)): no binding (tested: 3 µM FtsZ-A647); binding [1]: binds weakly
